Here are results for 26 molecules from the antibiotic and cytotoxicity screens of Wong et al. (2023).

Some of the results follow.

Experiment [1] relates to HSkMC (human skeletal muscle cells). Put plainly: cytotoxicity call (relative viability < 0.9). The note with it: 10 µM.
The test system of experiment [2] is HepG2. Briefly: cytotoxicity call (relative viability < 0.9). The following applies: 10 µM.
Experiment [3] deals with S. aureus RN4220. Briefly: growth inhibition call (relative growth <= 0.2). The note with it: 50 µM.

As to `C[C@H](CO)N1C[C@H](C)[C@H](CN(C)S(=O)(=O)c2ccc(F)cc2)Oc2ncc(C#CC(C)(C)O)cc2C1=O`, the cytotoxicity call in experiment [1] and in experiment [2] was “inactive” throughout. The growth inhibition call in experiment [3] is “inactive”.

On to `C[C@H]1CCCCO[C@H](CN(C)S(=O)(=O)c2cn(C)cn2)[C@@H](C)CN([C@@H](C)CO)C(=O)c2cc(NC(=O)Nc3cccc4ccccc34)ccc2O1`, for which the cytotoxicity call in experiment [1] and in experiment [2] was “inactive” in each case. Besides, the growth inhibition call in experiment [3] is “inactive”.

For `C[C@@H]1CCCCO[C@H](CN(C)Cc2ccc(C(F)(F)F)cc2)[C@@H](C)CN([C@@H](C)CO)C(=O)c2cc(NC(=O)Nc3ccc(C(F)(F)F)cc3)ccc2O1`, the cytotoxicity call in experiment [1] and in experiment [2] was “inactive” each time. Besides, in experiment [3], the growth inhibition call is “inactive”.

Take `Cc1noc(C)c1NC(=O)Nc1cccc2c1O[C@H](CN(C)Cc1ccc(-c3ccccc3)cc1)[C@H](C)CN([C@@H](C)CO)C2=O`: the cytotoxicity call in experiment [1] and in experiment [2] was “inactive” each time. In addition, the growth inhibition call in experiment [3] was “inactive”.

As for `CCCCCCCCCCC(C(=O)O)C1(C(=O)O)CCC(=O)O1` (stereo not drawn), the cytotoxicity call in experiment [1] and in experiment [2] was “inactive” throughout. The growth inhibition call in experiment [3] was “inactive”.

As to `C[C@@H]1CCCCO[C@@H](CN(C)C(=O)Nc2ccc3c(c2)OCO3)[C@H](C)CN([C@@H](C)CO)C(=O)c2cc(NC(=O)Nc3ccc4c(c3)OCO4)ccc2O1`, the cytotoxicity call in experiment [1] and in experiment [2] was “inactive” each time. Moreover, in experiment [3], the growth inhibition call is “inactive”.

Consider `Cc1snnc1-c1ccccc1`, for which the cytotoxicity call in experiment [1] and in experiment [2] was “inactive” in each case. For the same molecule, the growth inhibition call in experiment [3] was “inactive”.

On to `CC[C@@H](C)NC(=O)C1CCNCC1`, for which the cytotoxicity call in experiment [1] and in experiment [2] was “inactive” each time. For the same molecule, the growth inhibition call in experiment [3] is “inactive”.

As for `C[C@H]1CN([C@@H](C)CO)C(=O)Cc2cc(NC(=O)CCN3CCOCC3)ccc2O[C@H]1CN(C)S(=O)(=O)c1cccs1`, the cytotoxicity call in experiment [1] and in experiment [2] was “inactive” throughout. In experiment [3], the growth inhibition call is “inactive”.

Turning to `COCC(=O)N(C)C[C@@H]1Oc2cc(C#C[C@@H](C)O)ccc2S(=O)(=O)N([C@H](C)CO)C[C@H]1C`, the cytotoxicity call in experiment [1] and in experiment [2] was “inactive” in each case. Moreover, in experiment [3], the growth inhibition call is “inactive”.

For the molecule `C[C@@H]1CN([C@@H](C)CO)C(=O)c2cc(NC(=O)CCN3CCOCC3)ccc2O[C@@H]1CN(C)S(=O)(=O)c1cccs1`, the cytotoxicity call in experiment [1] and in experiment [2] was “inactive” throughout. For the same molecule, the growth inhibition call in experiment [3] was “inactive”.

For the molecule `C[C@H]1CN([C@@H](C)CO)C(=O)CCCn2cc(nn2)CO[C@@H]1CN(C)Cc1cccc2c1OCCCO2`, the cytotoxicity call in experiment [1] and in experiment [2] was “inactive” each time. Moreover, in experiment [3], the growth inhibition call was “inactive”.

Consider `COC(=O)[C@@H]1[C@H](C(=O)O)[C@@]2(C(=O)Nc3ccc(C#Cc4ccc(OC)cc4)cc32)[C@@H](c2ccccc2)N1C`, for which the cytotoxicity call in experiment [1] and in experiment [2] was “inactive” in each case. In addition, the growth inhibition call in experiment [3] was “inactive”.

For the molecule `COc1cccc(NC(=O)N2C[C@@H](O)COC[C@H]3O[C@H](CC(=O)NC4Cc5ccccc5C4)CC[C@@H]32)c1`, the cytotoxicity call in experiment [1] and in experiment [2] was “inactive” each time. Besides, in experiment [3], the growth inhibition call was “inactive”.

On to `COc1ccc(S(=O)(=O)N(C)C[C@H]2Oc3ccc(NC(=O)Cc4ccccc4)cc3C(=O)N([C@@H](C)CO)C[C@H]2C)cc1`, for which the cytotoxicity call in experiment [1] and in experiment [2] was “inactive” throughout. Besides, the growth inhibition call in experiment [3] was “inactive”.

Regarding `CO[C@H]1CN(C)C(=O)c2ccc(NC(=O)NC(C)C)cc2OC[C@H](C)N(Cc2ccc(-c3ccccn3)cc2)C[C@H]1C`, the cytotoxicity call in experiment [1] and in experiment [2] was “inactive” each time. Moreover, in experiment [3], the growth inhibition call is “inactive”.

Consider `C[C@@H]1CN([C@H](C)CO)C(=O)c2cc(Br)cnc2O[C@@H]1CN(C)C(=O)Nc1ccc(F)cc1`, for which the cytotoxicity call in experiment [1] and in experiment [2] was “inactive” each time. In addition, the growth inhibition call in experiment [3] was “inactive”.

Take `C[C@H](CO)N1C[C@H](C)[C@@H](CN(C)S(=O)(=O)c2cn(C)cn2)Oc2cc(C#Cc3cccc(F)c3)ccc2S1(=O)=O`: the cytotoxicity call in experiment [1] and in experiment [2] was “inactive” throughout. The growth inhibition call in experiment [3] was “inactive”.

With `C[C@@H]1CN([C@@H](C)CO)S(=O)(=O)c2ccc(Br)cc2O[C@@H]1CN(C)C(=O)c1cnccn1`, the cytotoxicity call in experiment [1] and in experiment [2] was “inactive” in each case. The growth inhibition call in experiment [3] is “inactive”.

Take `C[C@@H]1CN([C@@H](C)CO)C(=O)c2cccc(NC(=O)Nc3ccc(C(F)(F)F)cc3)c2O[C@H]1CN(C)Cc1ccc(Cl)c(Cl)c1`: the cytotoxicity call in experiment [1] and in experiment [2] was “active” each time. In addition, in experiment [3], the growth inhibition call is “inactive”.

As to `CN1CCN(C(=O)C[C@H]2CC[C@@H]3[C@@H](COc4ccc(NC(=O)c5ccc(F)c(F)c5)cc4C(=O)N3C)O2)CC1`, the cytotoxicity call in experiment [1] and in experiment [2] was “inactive” in each case. In addition, the growth inhibition call in experiment [3] is “inactive”.

For the molecule `CC(=O)OC[C@H]1O[C@@](COC(C)=O)(O[C@H]2O[C@H](COC(C)=O)[C@@H](OC(C)=O)[C@H](OC(C)=O)[C@H]2OC(C)=O)[C@@H](OC(C)=O)[C@@H]1OC(C)=O`, the cytotoxicity call in experiment [1] and in experiment [2] was “inactive” each time. The growth inhibition call in experiment [3] is “inactive”.

As for `Nc1ccc2c(c1)OCO2`, the cytotoxicity call in experiment [1] and in experiment [2] was “inactive” throughout. The growth inhibition call in experiment [3] was “inactive”.

As to `O=C(C[C@@H]1CC[C@H]2[C@@H](COC[C@@H](O)CN2C(=O)C2CC2)O1)NCc1ccncc1`, the cytotoxicity call in experiment [1] and in experiment [2] was “inactive” each time. Besides, the growth inhibition call in experiment [3] is “inactive”.

Regarding `C[C@@H]1CN([C@@H](C)CO)C(=O)c2cc(NC(=O)Nc3ccc(F)cc3)ccc2O[C@H]1CN(C)Cc1ccc(Cl)c(Cl)c1`, the cytotoxicity call in experiment [1] and in experiment [2] was “inactive” each time. For the same molecule, the growth inhibition call in experiment [3] was “inactive”.

As to `O=C(C[C@H]1C[C@H]2c3cc(NS(=O)(=O)c4ccccc4)ccc3O[C@H]2[C@@H](CO)O1)NC1CCCCC1`, the cytotoxicity call in experiment [1] and in experiment [2] was “inactive” each time. Besides, the growth inhibition call in experiment [3] is “inactive”.
